# PubChem BioAssay AID1508642 (National Center for Advancing Translational Sciences (NCATS), 2021)
# Out of some 43,000 compounds screened, about 200 (0.47%) were called active. Inconclusive results (about 12%) are left out. Calls follow the shape of the dose curve; as a rule, active = well fitted cell-killing curve with a large enough effect; inconclusive = small, poorly fitted or top-dose-only effect, or effect the other way; inactive = flat fitted curve, though single readings scatter. This is one part of the list.
# Assay: Cell viability qHTS assay in S16 Pmp22-F2sN cells; also: nearly all actives have a fitted effect of over 65% in size
# Settings: S16 Pmp22-F2sN Schwann cells viability, CellTiter-Glo, 24 h; at 57.5 µM (top of the series)
# Method in brief: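 Used to flag compounds lowering reporter output through toxicity, this quantitative HTS measures ATP-based CellTiter-Glo luminescence in S16 Pmp22-F2sN Schwann cells after 24 h compound exposure at 37C.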
# % is scaled to controls: 0 for no effect and ±100 for the full control effect.
row,SMILES,"activity change, negative = cytotoxicity"
1,CCOc1ccc(CN(CCc2ccc3c(c2)OCO3)Cc2cccc(C)c2)cc1,inactive: 7.67%
2,Cc1cc(OCC(=O)N2CCN(CCc3ccccn3)CC2)cc(C)c1Cl,inactive: -0.629%
3,Cc1cccc(C2CC(=O)Oc3c2c(=O)oc2ccccc32)c1 (configuration not stated),inactive: 1.93%
4,COc1ccc(CN2CCN(C(=O)COc3ccccc3)CC2)c(OC)c1,inactive: -16.4%
5,Cc1cc(NC(=O)c2cccn(Cc3ccccc3)c2=O)no1,inactive: 4.78%
6,Cc1cccc2sc(NC(=O)c3cccn(Cc4ccccc4)c3=O)nc12,inactive: -6.26%
7,Nc1c(C(=O)Nc2cccc(Br)c2)sc2nc3c(cc12)N1CCC3CC1,inactive: -23.9%
8,COc1ccc(OCC(=O)N2CCN(Cc3cccc(OC)c3OC)CC2)cc1,inactive: 0.461%
9,Cc1cc(C)cc(OCC(=O)Nc2ccc(Cl)cc2C(=O)c2ccccc2)c1,inactive: 8.31%
10,O=S1(=O)N(Cc2ccccc2)CCCN1Cc1ccc(F)cc1Cl,inactive: 0.759%
11,Cc1ccc(OCC(=O)Nc2ccc(Cl)cc2C(=O)c2ccccc2)cc1,inactive: -0.408%
12,O=C(Nc1ccc(Br)cc1C(=O)c1ccccc1)c1ccccc1,inactive: 20.1%
13,COC(=O)c1ccc(NC(=O)c2cccn(Cc3ccccc3C)c2=O)cc1,inactive: 1.99%
14,O=c1c2ccccc2nc(/C=C/c2ccccc2)n1-c1ccccc1F,inactive: -1.27%
15,Cc1nnc(NC(=O)c2cccn(Cc3cccc(Cl)c3)c2=O)s1,inactive: -0.131%
16,COc1cc(C(c2c(O)c3ccccc3oc2=O)c2c(C)n(C)n(-c3ccccc3)c2=O)ccc1O (configuration not stated),inactive: 7.18%
17,CN1CCN(c2oc(-c3ccc(COc4ccccc4)o3)nc2C#N)CC1,inactive: -0.02%
18,Cn1cc(/C=C/c2nc3ccccc3c(=O)n2-c2ccccc2)c2ccccc21,inactive: 3.21%
19,O=C(Nc1ccc2c(c1)OCO2)c1cccn(Cc2cccc(F)c2)c1=O,inactive: 4.69%
20,Nc1c(C(=O)Nc2ccc(Cl)cc2)sc2nc3c(cc12)N1CCC3CC1,inactive: -24.6%
21,COc1ccccc1NC(=O)N(Cc1ccc2c(c1)OCO2)C1CCN(Cc2ccccc2)CC1,inactive: -7.46%
22,Nc1c(C(=O)Nc2ccc(Br)cc2F)sc2nc3c(cc12)N1CCC3CC1,inactive: 3.07%

row,SMILES,"activity change, negative = cytotoxicity"
1,Cc1cccc(-n2c(/C=C/c3c(C)[nH]c4ccccc34)nc3ccccc3c2=O)c1,inactive: 27.4%
2,COc1cc(C(c2c(O)c3ccccc3oc2=O)c2c(C)n(C)n(-c3ccccc3)c2=O)ccc1OCC(=O)O (configuration not stated),inactive: -2.08%
3,O=C(Nc1ccc(Cl)cc1C(=O)c1ccccc1)c1ccccc1Br,inactive: 1.07%
4,Cc1c(Cl)cccc1NC(=O)CN1C(=O)C(C)N=C(c2ccccc2)c2ccccc21 (configuration not stated),inactive: -0.358%
5,CCOc1ccc2nc(NC(=O)c3cccn(Cc4ccc(Cl)cc4)c3=O)sc2c1,inactive: 16.9%
6,COc1ccc(-c2nc(CN3C(=O)CN=C(c4ccccc4)c4cc(Cl)ccc43)c(C)o2)cc1,inactive: -28.3%
7,O=C(Nc1ccc2c(c1)OCCO2)c1cccn(Cc2cccc(F)c2)c1=O,inactive: 6.47%
8,CCc1ccccc1NC(=O)c1cccn(Cc2ccccc2F)c1=O,inactive: 10.5%
9,CSc1ccc(CN2CCN(C(=O)COc3ccc(C)cc3)CC2)cc1,inactive: -2.59%
10,CCOc1ccc2nc(NC(=O)c3cccn(Cc4ccccc4)c3=O)sc2c1,inactive: 5.91%
11,O=C(Nc1ccc(Cl)cc1C(=O)c1ccccc1)c1cc(Cl)cc(Cl)c1,inactive: -1.05%
12,Cc1ccc(-n2c(/C=C/c3cccs3)nc3ccccc3c2=O)cc1C,inactive: -19.5%
13,CCCC12CN3CC(CCC)(CN(C1)C3c1ccccn1)C2=O (configuration not stated),inactive: -11%
14,CCN(CC)C(=O)c1ccc(NC(=O)Cn2nc(-c3ccc(C)cc3)c3ccccc3c2=O)cc1,inactive: 8.71%
15,Cc1ccc(Cn2cccc(C(=O)Nc3nnc(C)s3)c2=O)cc1,inactive: 5.14%
16,CCOC(=O)c1ccc(NC(=O)c2cccn(Cc3ccc(C)cc3)c2=O)cc1,inactive: 1.94%
17,CC(C)(C)c1ccc(OCC(=O)Nc2ccc(Cl)cc2C(=O)c2ccccc2)cc1,inactive: -6.59%
18,CCOc1ccccc1CN(CCc1ccc2c(c1)OCO2)Cc1ccc(CC)cc1,inactive: 3.17%
19,CSc1ncc(C(=O)Nc2ccc(Cl)cc2C(=O)c2ccccc2)c(C)n1,inactive: -6.36%
20,COc1ccc(NC(C)=O)cc1NC(=O)c1cccn(Cc2ccccc2)c1=O,inactive: 14.3%
21,Cc1nnc(NC(=O)c2cccn(Cc3cccc([N+](=O)[O-])c3)c2=O)s1,inactive: -12.9%
22,CCCC12CN3CC(C)(CN(C1)C3c1ccccn1)C2=O (configuration not stated),inactive: -16.6%

row,SMILES,"activity change, negative = cytotoxicity"
1,O=c1c2ccccc2nc(/C=C/c2ccccc2O)n1-c1ccc(Br)cc1,inactive: 15.4%
2,CCOc1ccc(NC(=O)c2cccn(Cc3cccc(Cl)c3)c2=O)cc1,inactive: 3.99%
3,N#Cc1cccc(NC(=O)c2sc3nc4c(cc3c2N)N2CCC4CC2)c1,inactive: -24.7%
4,N#Cc1cc2c(nc1SCC(=O)Nc1ccc(F)c(Cl)c1)C1CCN2CC1,inactive: 6.8%
5,O=C(Nc1ccc(Br)cc1C(=O)c1ccccc1Cl)c1ccccc1F,inactive: -0.888%
6,COc1ccc(CCNCc2ccc3c(c2)n(C)c(=O)n3C)cc1,inactive: -1.3%
7,O=C1CC(c2ccc(F)cc2)c2c(c3ccccc3oc2=O)O1 (configuration not stated),inactive: -0.799%
8,Cc1ccc(-c2nc(CN3C(=O)CN=C(c4ccccc4Cl)c4cc(Cl)ccc43)c(C)o2)cc1,inactive: 2.53%
9,O=C(Nc1ccc2c(c1)OCCO2)c1cccn(Cc2ccccc2)c1=O,inactive: 2.92%
10,Cc1cccc(Cn2cccc(C(=O)Nc3nnc(C)s3)c2=O)c1,inactive: 7.3%
11,O=C1CC(c2ccc(C(F)(F)F)cc2)c2c(c3ccccc3oc2=O)O1 (configuration not stated),inactive: 3.35%
12,O=C(Nc1ccc2c(c1)OCO2)c1cccn(Cc2ccccc2)c1=O,inactive: 7.25%
13,O=C(Nc1ccon1)c1cccn(Cc2cccc([N+](=O)[O-])c2)c1=O,inactive: -8.8%
14,O=C(Nc1ccccc1)N(Cc1ccc2c(c1)OCO2)C1CCN(Cc2ccccc2)CC1,inactive: -8.27%
15,O=C(Nc1ccc(F)c(Cl)c1)N(Cc1ccc2c(c1)OCO2)C1CCN(Cc2ccccc2)CC1,inactive: -23.6%
16,Nc1c(C(=O)Nc2ccc(F)c(Cl)c2)sc2nc3c(cc12)N1CCC3CC1,inactive: -27.4%
17,COc1ccc(NC(=O)CN2C(=O)C(C)N=C(c3ccccc3)c3ccccc32)cc1OC (configuration not stated),inactive: -8.18%
18,Cc1ccc(Cn2cccc(C(=O)Nc3nc4ccc(C)cc4s3)c2=O)cc1,inactive: -2.86%
19,Cc1ccc(OCC(=O)Nc2ccc(Cl)cc2C(=O)c2ccccc2)c(Br)c1,inactive: 18.2%
20,COc1ccc(C(c2c(O)c3ccccc3oc2=O)c2c(C)n(C)n(-c3ccccc3)c2=O)cc1 (configuration not stated),inactive: 5.59%
21,N#Cc1cc2c(nc1SCC(=O)Nc1cccc(C(F)(F)F)c1)C1CCN2CC1,inactive: -25.7%
22,CCOc1ccccc1NC(=O)c1cccn(Cc2ccccc2C)c1=O,inactive: 7.9%

row,SMILES,"activity change, negative = cytotoxicity"
1,CCSc1nnc(NC(=O)c2cccn(Cc3ccccc3Cl)c2=O)s1,inactive: 21.9%
2,Cc1cccc(OCC(=O)N2CCN(Cc3cc(=O)n4nc(-c5ccccc5Cl)sc4n3)CC2)c1,inactive: 12.1%
3,COc1cccc(-n2c(/C=C\c3ccc(Cl)cc3)nc3ccccc3c2=O)c1,inactive: 2.1%
4,c1cnc2c(c1)ncn2C1CCNCC1,inactive: -0.833%
5,Cc1ccc(C(C)(C)C)c(OCC(=O)Nc2ccc(Cl)cc2C(=O)c2ccccc2)c1,inactive: -2.77%
6,Cc1ccc(OCC(=O)N2CCN(Cc3ccc(F)cc3)CC2)cc1,inactive: -1.74%
7,Cc1cc(C)cc(NC(=O)CN2C(=O)CN=C(c3ccccc3)c3cc(Cl)ccc32)c1,inactive: 3.73%
8,O=C(COc1ccc(Br)cc1)Nc1ccc(Cl)cc1C(=O)c1ccccc1,inactive: 5.55%
9,O=c1c2ccccc2nc(/C=C/c2cccc3ccccc23)n1-c1ccc(Cl)cc1,inactive: -1.27%
10,COc1cc(OC)cc(C(=O)Nc2ccc(Cl)cc2C(=O)c2ccccc2Cl)c1,inactive: 1.74%
11,CCC12CN3CC(CC)(CN(C1)C3c1c(C)[nH]c(=O)[nH]c1=O)C2=O (configuration not stated),inactive: 7.36%
12,COc1cc2[nH]c(=O)n(-c3ccc(C)cc3)c(=O)c2cc1OC,inactive: 6.64%
13,CCN(CC)C(=O)c1ccc(NC(=O)COc2ccc(-c3nn(C)c(=O)c4ccccc34)cc2)cc1,inactive: 4.21%
14,Cc1ccccc1-c1nc(CN2C(=O)CN=C(c3ccccc3)c3ccccc32)c(C)o1,inactive: -5.83%
15,COc1ccccc1-c1nn2c(=O)cc(CN3CCN(C(=O)COc4ccccc4Cl)CC3)nc2s1,inactive: -1.06%
16,CCc1ccc(-n2nc(C)c3c2NC(=O)CSC3c2ccc(C(=O)OC)cc2)cc1 (configuration not stated),inactive: -2.55%
17,O=C(Nc1ccc(Br)cc1C(=O)c1ccccc1Cl)c1ccc(Br)cc1,inactive: 1.63%
18,Cc1ccc2nc(NC(=O)c3cccn(Cc4ccccc4F)c3=O)sc2c1,inactive: 11.3%
19,Cc1ccc2c(=O)n(-c3cccc(Cl)c3)c(=O)[nH]c2c1,inactive: 3.09%
20,CCN(CC)C(=O)c1ccc(NC(=O)c2ccc(-c3nn(C)c(=O)c4ccccc34)cc2)cc1,inactive: 26.7%
21,Cc1ccc(-c2nc(CN3C(=O)CN=C(c4ccccc4)c4ccccc43)c(C)o2)cc1,inactive: -14.6%
